From the GPR68 mutational scans of Howard et al. (2025) come the findings set out here.

B1: GPR68, Q15743 (parent)
chain: MGNITADNSSMSCTIDHTIHQTLAPVVYVTVLVVGFPANCLSLYFGYLQIKARNELGVYLCNLTVADLFYICSLPFWLQYVLQHDNWSHGDLSCQVCGILLYENIYISVGFLCCISVDRYLAVAHPFRFHQFRTLKAAVGVSVVIWAKELLTSIYFLMHEEVIEDENQHRVCFEHYPIQAWQRAINYYRFLVGFLFPICLLLASYQGILRAVRRSHGTQKSRKDQIQRLVLSTVVIFLACFLPYHVLLLVRSVWEASCDFAKGVFNAYHFSLLLTSFNCVADPVLYCFVSETTHRDLARLRGACLAFLTCSRTGRAREAYPLGAPEASGKSGAQGEEPELLTKLHPAFQTPNSPGSGGFPTGRLA

The least precise scores are not listed. The source holds two more conditions with little spread; they are left out. Read del as a deletion of the residues named and ins as an insertion between two positions. For part of these data: How much ogerin was present is not stated here.

Data set [1] covers variants of B1. Description: cAMP reporter score (Enrich2 score, wild type = 0); higher = more signal; HEK293T, FACS bins.
Data set [2] covers variants of B1. Description: surface expression score (Enrich2 score, wild type = 0); higher = more signal; HEK293T, FACS bins.

Regarding R214G, the cAMP reporter score in data set [1] (pH 6) was -0.902; in data set [1] (pH 6, modulator: ogerin), 1.08; in data set [1] (pH 6.5, modulator: ogerin), 0.82. The surface expression score in data set [2] was 1.81.

Take I107A: the cAMP reporter score in data set [1] (pH 6) was -0.047; in data set [1] (pH 6.5, modulator: ogerin) it was -0.458.

In the case of I107G, in data set [1] (pH 6), the cAMP reporter score was -0.201. Also, the surface expression score in data set [2] was -1.72.

Turning to Y205P, the cAMP reporter score in data set [1] (pH 6) is -2.02; in data set [1] (pH 6, modulator: ogerin), -1.11; in data set [1] (pH 6.5, modulator: ogerin), -1.11.

As to Y205H, the cAMP reporter score in data set [1] (pH 6) is 0.382; in data set [1] (pH 6, modulator: ogerin) it was -0.186; in data set [1] (pH 6.5, modulator: ogerin), -0.444.

For Y205S, the cAMP reporter score in data set [1] (pH 6) was -0.051. Further, the surface expression score in data set [2] was -0.283.

Consider S153_Y155del, for which the cAMP reporter score in data set [1] (pH 6) was -0.902; in data set [1] (pH 6, modulator: ogerin), -0.884; in data set [1] (pH 6.5, modulator: ogerin), -1.45. Also, the surface expression score in data set [2] is -2.04.

On to C94D, for which the cAMP reporter score in data set [1] (pH 6) is -1.62; in data set [1] (pH 6, modulator: ogerin), -0.677; in data set [1] (pH 6.5, modulator: ogerin), -0.636. Moreover, the surface expression score in data set [2] is -2.58.

In the case of C94L, the cAMP reporter score in data set [1] (pH 6) is -1.53; in data set [1] (pH 6, modulator: ogerin), -2.52.

Take R128M: the cAMP reporter score in data set [1] (pH 6) was -0.852; in data set [1] (pH 6, modulator: ogerin) it was 0.002; in data set [1] (pH 6.5, modulator: ogerin), -0.438. Moreover, the surface expression score in data set [2] was determined as 1.47.

Regarding R128A, the cAMP reporter score in data set [1] (pH 6) was -0.607; in data set [1] (pH 6, modulator: ogerin), 0.64; in data set [1] (pH 6.5, modulator: ogerin) it was 0.088. The surface expression score in data set [2] is -1.34.

Consider Q227D, for which the cAMP reporter score in data set [1] (pH 6) is 0.253; in data set [1] (pH 6, modulator: ogerin), -0.514; in data set [1] (pH 6.5, modulator: ogerin), -0.384. In data set [2], the surface expression score came out at 0.168.

For the variant G57D, the cAMP reporter score was -1.17 in data set [1] (pH 6); -1.37 in data set [1] (pH 6, modulator: ogerin); -1.32 in data set [1] (pH 6.5, modulator: ogerin). In data set [2], the surface expression score was -3.34.

Turning to Y187E, the cAMP reporter score is -0.679 in data set [1] (pH 6); -0.323 in data set [1] (pH 6, modulator: ogerin); -1.94 in data set [1] (pH 6.5, modulator: ogerin).

Regarding Y187D, the cAMP reporter score was -0.971 in data set [1] (pH 6) and 0.285 in data set [1] (pH 6, modulator: ogerin). In addition, the surface expression score in data set [2] is -1.43.

As for A203E, the cAMP reporter score in data set [1] (pH 6) is -0.925; in data set [1] (pH 6, modulator: ogerin), -2.94.

As for A203H, the cAMP reporter score in data set [1] (pH 6) is 0.936; in data set [1] (pH 6.5, modulator: ogerin) it was -0.406. Besides, the surface expression score in data set [2] is -0.595.

With A180V, the cAMP reporter score is -1.03 in data set [1] (pH 6) and -0.104 in data set [1] (pH 6.5, modulator: ogerin). Further, the surface expression score in data set [2] was found to be 0.129.

For the variant F129A, the cAMP reporter score was 1.39 in data set [1] (pH 6) and -0.393 in data set [1] (pH 6.5, modulator: ogerin).

Consider F194H, for which the cAMP reporter score in data set [1] (pH 6) is 0.626; in data set [1] (pH 6, modulator: ogerin), -0.318; in data set [1] (pH 6.5, modulator: ogerin), -3.41. For the same variant, the surface expression score in data set [2] is -3.04.

Consider L209E, for which the cAMP reporter score in data set [1] (pH 6) was -2.62; in data set [1] (pH 6, modulator: ogerin), -0.681. Besides, in data set [2], the surface expression score is -0.642.

On to V141R, for which the cAMP reporter score in data set [1] (pH 6) was -1.49; in data set [1] (pH 6, modulator: ogerin) it was -2.48; in data set [1] (pH 6.5, modulator: ogerin), -1.36. Further, in data set [2], the surface expression score is -0.429.

As to V141E, the cAMP reporter score in data set [1] (pH 6) was -1.42; in data set [1] (pH 6.5, modulator: ogerin) it was -1.55. In addition, the surface expression score in data set [2] was -3.38.

As to N167W, the cAMP reporter score in data set [1] (pH 6) was -0.652; in data set [1] (pH 6, modulator: ogerin), -0.431; in data set [1] (pH 6.5, modulator: ogerin), -0.903. For the same variant, the surface expression score in data set [2] was determined as 0.807.

With N167V, the cAMP reporter score is -0.95 in data set [1] (pH 6); -0.401 in data set [1] (pH 6, modulator: ogerin); -1.66 in data set [1] (pH 6.5, modulator: ogerin). The surface expression score in data set [2] was determined as 1.24.

For the variant L112_C114del, in data set [1] (pH 6), the cAMP reporter score is 1.17. The surface expression score in data set [2] was -1.17.

For the variant F190G, the cAMP reporter score was 1.33 in data set [1] (pH 6) and -1.8 in data set [1] (pH 6.5, modulator: ogerin). Also, the surface expression score in data set [2] is -0.407.

E166V: the cAMP reporter score in data set [1] (pH 6) is -0.527; in data set [1] (pH 6, modulator: ogerin), -0.597; in data set [1] (pH 6.5, modulator: ogerin) it was 0.083. In addition, the surface expression score in data set [2] was -0.403.

Regarding Y120A, the cAMP reporter score in data set [1] (pH 6) was -0.648; in data set [1] (pH 6, modulator: ogerin) it was -0.707. Besides, the surface expression score in data set [2] was -2.33.

Turning to I198_L200del, the cAMP reporter score in data set [1] (pH 6) is -1.08; in data set [1] (pH 6, modulator: ogerin), -0.689; in data set [1] (pH 6.5, modulator: ogerin), -0.442.

As for W146E, the cAMP reporter score in data set [1] (pH 6) was -0.19; in data set [1] (pH 6, modulator: ogerin), -2.11; in data set [1] (pH 6.5, modulator: ogerin), -1.6. Further, in data set [2], the surface expression score is -2.3.

On to W146A, for which the cAMP reporter score was -0.434 in data set [1] (pH 6) and -0.601 in data set [1] (pH 6.5, modulator: ogerin). Besides, in data set [2], the surface expression score was -2.94.

Consider W146Y, for which the cAMP reporter score was -0.591 in data set [1] (pH 6) and -1.31 in data set [1] (pH 6, modulator: ogerin).

On to W146D, for which the cAMP reporter score in data set [1] (pH 6) was -1.02; in data set [1] (pH 6, modulator: ogerin), -3.36. For the same variant, the surface expression score in data set [2] was -1.31.

Turning to W146M, the cAMP reporter score in data set [1] (pH 6) is -1.17; in data set [1] (pH 6, modulator: ogerin) it was -2.83; in data set [1] (pH 6.5, modulator: ogerin), -1.3. Further, the surface expression score in data set [2] is -3.72.

With W146S, the cAMP reporter score in data set [1] (pH 6) was -0.877; in data set [1] (pH 6.5, modulator: ogerin) it was -0.526.

Turning to A52G, the cAMP reporter score in data set [1] (pH 6) is -0.89; in data set [1] (pH 6, modulator: ogerin), 0.534; in data set [1] (pH 6.5, modulator: ogerin), -0.332. Further, the surface expression score in data set [2] is -0.404.

With V139D, the cAMP reporter score in data set [1] (pH 6) was -1.78; in data set [1] (pH 6.5, modulator: ogerin) it was -2.27. Moreover, the surface expression score in data set [2] is -4.09.

Turning to V139K, the cAMP reporter score is -0.747 in data set [1] (pH 6) and -1.6 in data set [1] (pH 6.5, modulator: ogerin). Also, the surface expression score in data set [2] is -2.41.

On to L200_L202del, for which the cAMP reporter score in data set [1] (pH 6) is -1.49; in data set [1] (pH 6, modulator: ogerin) it was -3.52; in data set [1] (pH 6.5, modulator: ogerin), -1.17. The surface expression score in data set [2] is -2.19.

Regarding R210S, the cAMP reporter score in data set [1] (pH 6) was 1.65; in data set [1] (pH 6, modulator: ogerin), 0.217; in data set [1] (pH 6.5, modulator: ogerin) it was -0.33.

For R210Y, the cAMP reporter score in data set [1] (pH 6) was -1.15; in data set [1] (pH 6.5, modulator: ogerin) it was -0.012. For the same variant, in data set [2], the surface expression score is -0.34.

As to I163A, the cAMP reporter score in data set [1] (pH 6) is -0.423; in data set [1] (pH 6.5, modulator: ogerin), 2.74.

V109H: the cAMP reporter score was -3.19 in data set [1] (pH 6); -3.27 in data set [1] (pH 6, modulator: ogerin); -0.792 in data set [1] (pH 6.5, modulator: ogerin).
